We go through one molecule from paper PMC7039627 (mAbs, 2020).

For this assay, the target named is T1, mCD80-6xHis (mouse, UniProt Q00609).
T1 sequence: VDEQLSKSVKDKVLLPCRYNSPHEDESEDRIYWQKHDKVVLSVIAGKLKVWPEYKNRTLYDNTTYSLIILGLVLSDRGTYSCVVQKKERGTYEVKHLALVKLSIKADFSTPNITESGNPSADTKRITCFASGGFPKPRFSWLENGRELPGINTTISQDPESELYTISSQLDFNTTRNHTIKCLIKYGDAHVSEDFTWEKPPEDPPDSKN
Nature of the assay: ELISA.

B1: mCTLA-4-mFc dimer (Fc fusion)
chain: not shown
In the case of B1, the binding result is “binds”.
